Measured values taken from PubChem BioAssay AID1454 (National Center for Advancing Translational Sciences (NCATS), 2008).
“And” between values parts separate entries of the source, which are not always exact repeats. Equal entries are not always repeated. Hit rate of the full screen: of about 130,000 compounds, about 550 (0.42%) were called active. Inconclusive results (about 4%) are left out. The call rests on the fitted dose curve; in most records, active means well fitted inhibition curve with a large enough effect; inconclusive means small, poorly fitted or top-dose-only effect, or effect the other way; inactive means flat fitted curve, though single readings scatter. Only a part is listed here, and it is no random draw. Where a structure was tested more than once in an assay, its records may differ in their call.

Assay: qHTS Assay for Inhibitors of the ERK Signaling Pathway using a Homogeneous Screening Assay; Stimulation with EGF; further: nearly all actives have a fitted effect of over 55% in size
Details: HEK293-V1b, EGF-stimulated phospho-ERK AlphaScreen; activity change, negative = inhibition: at the top concentration
Text: NIH Chemical Genomics Center [NCGC]
NIH Molecular Libraries Screening Centers Network [MLSCN]
Assay Submitter (PI): Dr. Wei Zheng, NCGC/NIH
The Ras/extracellular-signal-regulated kinase (ERK) mitogen activated protein (MAP) kinase signaling pathway (ERK1/2 cascade) plays a key role in transmitting signals from the cell surface to the nucleus (Nishida and Gotoh 1993; Chang and Karin, 2001). The cascade is initiated by the small G-protein Ras, which recruits Raf from the cytosol, where activation occurs. Alternatively, this pathway can be activated by elevating intracellular cAMP, or by activation of a receptor tyrosine kinase as epidermal growth factor receptor.
Activation of the ERK pathway is essential in increased cell division and cell survival. Sustained and constitutive activation of the ERK pathway, however, has been linked to uncontrolled cell proliferation, increased cell survival, and tumor progression. Thus, the ERK has been as an attractive target for cancer chemotherapy in the past few years (Sebolt-Leopold and Herrera, 2004). Given its physiological and pathological importance, assessment of ERK phosphorylation has been broadly performed in both basic research and drug discovery. Most assays for the measurement of ERK phosphorylation use the antibody-based detection methods, such as western blot and ELISA. These assays require multiple reagent additions with cell wash steps and are not suitable for high throughout screening.
The current cell-based ERK phosphorylation assay was performed using AlphaScreen platform. AlphaScreen is a two bead-based proximity-dependent chemical energy transfer luminescent assay platform. The assay reagents (ERK SureFire(TM) kit) were supplied from TGR BioSciences (Australia). In the presence of specific antibodies, phosphorylated ERK will bring "donor" and "acceptor" beads to a proximity range (<200 nm), and subsequently lead a chemical luminescent reaction upon exciting donor beads with 680 nm laser. To exclude the assay-related false positives, we used a biotinylated rabbit IgG to perform counter-screen. The biotinylated antibody mimics the phosphorylated ERK1/2 for bringing streptavidin coated beads and protein-A coated beads to a proximity range for the AlphaScreen detection.
NCGC Assay Protocol Summary:
HEK293 cells stably expressing type-1 vasopressin receptor (V1b) were maintained in DMEM medium (Invitrogen, Carlsbad, CA) at 37C under a humidified atmosphere containing 5% CO2 and 95% air. The medium contained 10% FBS, 2 mM L-glutamine, non-essential amino acid, pyruvate and 50 U/ml penicillin and 50 ug/ml streptomycin (Invitrogen). The aliquots of frozen cells were stored at -135C and used for the compound screening. All compounds were screened as titrations from 0.6 nM to 46 uM final concentration. Epidermal growth factor (EGF) was used to stimulate the ERK phosphorylation pathway. The ERK phosphorylation in cells was determined using an AlphaScreen assay kit provided by […]. Data were normalized to the controls for basal activity (DMSO only) and 100% activation (25 nM EGF). AC50 values were determined from concentration-response data modeled with the standard Hill equation.
(1) Seed 4 ul/well of resuspended frozen HEK293 cells containing 2000 cells in white 1536-well plates for overnight with 1% FBS at 37C under a humidified atmosphere containing 5% CO2 and 95% air.
(2) Add 23 nL compounds in DMSO solution. The final titration was 0.6 nM to 46 uM.
(3) Incubate at 37C for 30 min.
(4) Dispense 0.5uL EGF (25 nM in final)
(5) Incubate at 37C for 5 min.
(6) Dispense 0.5uL of 1:2 diluted 5x lysis buffer.
(7) Incubate at 37C for 10 min.
(8) Dispense 1.5uL of mixture of activation buffer and reaction buffer with AlphaScreen beads (streptavidin donor beads and protein-A acceptor beads, 10 ng/well for each).
(9) Incubate at room temperature for 5 hr.
(10) Detect the assay plate in an EnVision plate reader (PerkinElmer) using the AlphaScreen detection mode.
[…]
Potency means the concentration at half of the fitted maximal effect.

| Structure (SMILES) | Potency | activity change, negative = inhibition |
| --- | --- | --- |
| CC(C)=CCc1c(O)cc2occ(-c3ccc4c(c3)OCO4)c(=O)c2c1O | active: 22.4 µM | – |
| CCOC(=O)C1=C(C)NC(C)=C(C(=O)OC)C1c1cccc([N+](=O)[O-])c1 (stereo not drawn) | inactive | – |
| CCN1CCCC1CNC(=O)c1cc(S(=O)(=O)CC)c(N)cc1OC (stereo not drawn) | inactive | – |
| COc1ccccc1OCCNCC(O)COc1cccc2[nH]c3ccccc3c12 (stereo not drawn) | inactive | – |
| COc1ccc2cc1Oc1ccc(cc1)C[C@H]1c3c(cc4c(c3Oc3cc5c(cc3OC)CCN(C)[C@@H]5C2)OCO4)CCN1C | – | inactive: -8.74% [at 57.5 µM] |
| CN(C)CCCC1(c2ccc(F)cc2)OCc2cc(C#N)ccc21 (stereo not drawn) | inactive | – |
| CCCCC1=NC2(CCCC2)C(=O)N1Cc1ccc(-c2ccccc2-c2nn[nH]n2)cc1 | – | inactive: 4.31% |
| Cc1[nH]n(-c2ccccc2)c(=O)c1N=Nc1ccc2c(c1)OCCO2 | active: 12.6 µM | – |
| CN(C)CCOC(c1ccccc1)c1ccccc1 (tested in a mixture with another compound) | inactive | – |
| Clc1ccccc1C(c1ccccc1)(c1ccccc1)n1ccnc1 | inactive and active: 22.4 µM | – |
| Cc1ccc(/C=C2/SC(=S)N(CCCC(=O)Nc3ccc(O)cc3)C2=O)cc1 | – | inactive: -6.25% [at 57.5 µM] |
| O=C(NN1C(=O)/C(=C/c2ccc(O)c([N+](=O)[O-])c2)SC1=S)c1ccccc1Cl | – | inactive: -5.66% |
| Oc1c(Cl)cc(Cl)cc1Sc1cc(Cl)cc(Cl)c1O | – | inactive: 6.7% |
| COc1ccc(/C=C\C(=O)Nc2ccccc2C(=O)O)cc1OC | – | inactive: -18.6% |
| CC[C@H](C)C(=O)O[C@H]1CCC=C2C=C[C@H](C)[C@H](CC[C@@H]3C[C@H](O)CC(=O)O3)C21 (stereo partly drawn) | – | inactive: 22.7% |
| CCCN1C(=O)/C(=C2/C=Cc3ccccc3N2CC)SC1=S | active: 5.62 µM | – |
| Cc1cccc(N=C2NC(=O)/C(=C\c3cccs3)S2)c1 | – | inactive: 3.29% |
| Clc1ccc(-c2ncc3ccccn23)cc1 | active: 31.6 µM | – |
| CC(C)N(CCC(=O)c1ccc2ccccc2c1)Cc1ccccc1 | – | inactive: -3.42% |
| COc1ccccc1NC(=O)/C(=C/c1cccs1)NC(=O)c1ccco1 | – | inactive: 4.14% [at 57.5 µM] |
| O=S(=O)(c1cccc2c(Cl)cccc12)N1CCCNCC1 | – | inactive: -8.2% |
| Nc1nnc(-c2cccc(Cl)c2Cl)c(N)n1 | inactive | – |
| COc1ccc(OC)c(-c2c3cc(O)c(=O)cc-3oc3cc(O)c(O)cc23)c1 | active: 25.1 µM | – |
| COc1cccc(-c2ccc3ncnc(NCc4cccs4)c3c2)c1 | active: 28.2 µM | – |

| Structure (SMILES) | Potency | activity change, negative = inhibition |
| --- | --- | --- |
| C=CC[C@H]1Cc2c(cccc2[N+](=O)[O-])[C@H](CC=C)N1 | – | inactive: 1.18% |
| CCCCOC(=O)c1ccc(O)cc1 | – | inactive: 0.364% [at 25.7 µM] |
| OC(CNCCc1ccc(C(F)(F)F)cc1)COc1ccc2ccccc2c1 (stereo not drawn) | active: 35.5 µM | – |
| CC(C)COc1ccc(C(=O)N/C(=C\c2cccc([N+](=O)[O-])c2)C(=O)O)cc1 | – | inactive: 6.62% [at 57.5 µM] |
| O=C(O)c1cc(O)c2c(c1)C(=O)c1cc(O)cc(O)c1C2=O | – | inactive: 21.3% |
| CCOC(=O)C1=C(C)NC(C)=C(C(=O)OC)[C@@H]1c1cccc([N+](=O)[O-])c1 | – | inactive: 8.75% [at 25.7 µM] |
| CN1C(C(=O)Nc2ccccn2)=C(O)c2ccccc2S1(=O)=O | inactive | – |
| CC(/C=N\N1CCN(Cc2ccc(C)cc2)CC1)=C\c1ccccc1 | – | inactive: 5.84% |
| c1coc(CN(Cc2ccco2)c2ncnc3c2oc2ccccc23)c1 | active: 17.8 µM | – |
| COc1ccc(C2c3ccc4ccccc4c3Oc3ncn(CCCO)c(=N)c32)cc1 (stereo not drawn) | active: 39.8 µM | – |
| O=C1Nc2ccc(I)cc2/C1=C/c1cc(Br)c(O)c(Br)c1 | – | inactive: -4.3% |
| CN(C(=O)COc1ccccc1C(=O)NCCOc1ccccc1)c1ccccc1 | active: 31.6 µM | – |
| Oc1cc2c(cc1O)C(c1ccccc1)CNCC2 (stereo not drawn) | inactive | – |
| COc1cc2ncnc(Nc3cccc(Br)c3)c2cc1OC | active: 0.1 µM | – |
| C[C@H](C(=O)O)c1cccc(C(=O)c2ccccc2)c1 | – | inactive: -12.5% |
| O=C(Nc1nc(-c2ccccc2)cs1)c1ccc(N2CCOCC2)c([N+](=O)[O-])c1 | active: 3.98 µM | – |
| C[C@H](NC(=O)c1[nH]cnc1C(=O)Nc1ccc(CNC(=O)OC(C)(C)C)cc1)C(=O)OCc1ccccc1 | active: 31.6 µM | – |
| COCCCNC(=O)c1ccc2c3c(onc13)-c1ccccc1C2=O | active: 31.6 µM | – |
| Cc1ccc(C(=O)c2cc3ccccc3o2)cc1[N+](=O)[O-] | active: 22.4 µM | – |
| CC12C(=O)OC(=O)C1(C)C1CCC2O1 (stereo not drawn) | – | inactive: -11.4% |
| O=C(NCc1nc2ccccc2[nH]1)C1=C[C@@H](C2CCCCC2)C[C@@H](OCc2ccc(CO)cc2)O1 | – | inactive: -2.73% [at 57.5 µM] |
| N[C@H]1CONC1=O | – | inactive: 19.5% |
| CC1=NN(c2ccccc2)C(=O)/C1=C/C=C/c1ccccc1 | active: 15.8 µM | – |
| O=C1c2ccccc2C(=O)c2c(O)c(O)cc(O)c21 | – | inactive: -4.6% |
